Data from the supplement of paper PMC4604168 (melanoma cell lines).
This is one part of the list. Most values come without repeats; read them as rough.

Tests used:
Test in all cases: cell count relative to DMSO control; melanoma cells; higher = more viable cells
Conditions in all cases: library dose: low library concentration; 72 h
WM115 = test system: WM115
WM1716 = test system: WM1716
WM1745 = test system: WM1745
WM3526 = test system: WM3526
WM3619 = test system: WM3619
WM451Lu = test system: WM451Lu
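Also: cell number obtained by counting DAPI-stained nuclei in high-throughput microscope images with image analysis software, screen run in 1,536-well plates.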

**Q.** With `Cn1cc(C2=C(c3cn(C4CCN(Cc5ccccn5)CC4)c4ccccc34)C(=O)NC2=O)c2ccccc21` [Enzastaurin] + C[C@]1(c2nc3c(C(N)=O)cccc3[nH]2)CCCN1 [Veliparib] (first compound 0.8 µM, partner dose 1.4 µM) as the molecule, how does the cell count (WM115) read?
**A.** 93.6%

**Q.** What about the cell count (WM1716) of the same molecule?
**A.** 83%

**Q.** What about the cell count (WM1745) of the same molecule?
**A.** 85.6%

**Q.** And the cell count (WM3526)?
**A.** 110%

**Q.** And the cell count (WM3619)?
**A.** 97.2%

**Q.** What about the cell count (WM451Lu) of the same molecule?
**A.** 96.8%

**Q.** `N.N.[Cl][Pt][Cl]` [cisplatin] + Cc1cc(N2CCOCC2)cc2[nH]c(-c3c(NC[C@@H](O)c4cccc(Cl)c4)cc[nH]c3=O)nc12 [BMS536924] (first compound 1.6 µM, partner dose 0.2 µM) was tested. Which cell count (WM115) did it give?
**A.** 89.3%

**Q.** And the cell count (WM1716)?
**A.** 105%

**Q.** And the cell count (WM1745)?
**A.** 61.8%

**Q.** And the cell count (WM3526)?
**A.** 88.9%

**Q.** And the cell count (WM3619)?
**A.** 78.8%

**Q.** What about the cell count (WM451Lu) of the same molecule?
**A.** 93.8%

**Q.** `C[C@]12O[C@H](C[C@]1(O)CO)n1c3ccccc3c3c4c(c5c6ccccc6n2c5c31)CNC4=O` [Lestaurtinib] + O=C(Nc1ccccc1)c1cc([N+](=O)[O-])ccc1Cl [GW9662] (first compound 0.004 µM, partner dose 2 µM) was tested. Which cell count (WM115) did it give?
**A.** 101%

**Q.** And the cell count (WM1716)?
**A.** 114%

**Q.** And the cell count (WM1745)?
**A.** 90.1%

**Q.** And the cell count (WM3526)?
**A.** 121%

**Q.** And the cell count (WM3619)?
**A.** 99.8%

**Q.** What about the cell count (WM451Lu) of the same molecule?
**A.** 120%

**Q.** How did the cell count (WM115) turn out when `C[As](C)SC[C@H](NC(=O)CC[C@H](N)C(=O)O)C(=O)NCC(=O)O` [Darinaparsin] + CCN(CC)CCCCNc1ncc2cc(-c3cc(OC)cc(OC)c3)c(NC(=O)NC(C)(C)C)nc2n1 [PD173074] (first compound 0.4 µM, partner dose 0.1 µM) was run?
**A.** 107%

**Q.** What about the cell count (WM1716) of the same molecule?
**A.** 101%

**Q.** And the cell count (WM1745)?
**A.** 88.3%

**Q.** And the cell count (WM3526)?
**A.** 116%

**Q.** And the cell count (WM3619)?
**A.** 96.2%

**Q.** What about the cell count (WM451Lu) of the same molecule?
**A.** 112%

**Q.** Which results are given for `C[C@]12O[C@H](C[C@]1(O)CO)n1c3ccccc3c3c4c(c5c6ccccc6n2c5c31)CNC4=O` [Lestaurtinib] + O=C1NC(=O)/C(=C/c2ccc(-c3ccc(F)cc3O)o2)S1 [AS252424] (first compound 0.004 µM, partner dose 1 µM)?
**A.** cell count (WM115): 119%; cell count (WM1716): 112%; cell count (WM1745): 94.8%; cell count (WM3526): 92.6%; cell count (WM3619): 102%; cell count (WM451Lu): 97.3%

**Q.** With `C[C@]12O[C@H](C[C@]1(O)CO)n1c3ccccc3c3c4c(c5c6ccccc6n2c5c31)CNC4=O` [Lestaurtinib] + COCC[n+]1c2c(n(Cc3cnccn3)c1C)C(=O)c1ccccc1C2=O [YM155] (first compound 0.004 µM, partner dose 0.0004 µM) as the molecule, how does the cell count (WM115) read?
**A.** 95.1%

**Q.** And the cell count (WM1716)?
**A.** 104%

**Q.** What about the cell count (WM1745) of the same molecule?
**A.** 98.2%

**Q.** What about the cell count (WM3526) of the same molecule?
**A.** 97.3%

**Q.** What about the cell count (WM3619) of the same molecule?
**A.** 103%

**Q.** What about the cell count (WM451Lu) of the same molecule?
**A.** 78.3%

**Q.** Which cell count (WM115) does the source give for `C[C@]12O[C@H](C[C@]1(O)CO)n1c3ccccc3c3c4c(c5c6ccccc6n2c5c31)CNC4=O` [Lestaurtinib] + Nc1ncn([C@H]2C[C@H](O)[C@@H](CO)O2)c(=O)n1 [decitabine] (first compound 0.004 µM, partner dose 0.1 µM) here?
**A.** 73.3%

**Q.** And the cell count (WM1716)?
**A.** 92.4%

**Q.** What about the cell count (WM1745) of the same molecule?
**A.** 85.5%

**Q.** What about the cell count (WM3526) of the same molecule?
**A.** 82.3%

**Q.** What about the cell count (WM3619) of the same molecule?
**A.** 85.2%

**Q.** And the cell count (WM451Lu)?
**A.** 104%

**Q.** How did the cell count (WM115) turn out when `C[As](C)SC[C@H](NC(=O)CC[C@H](N)C(=O)O)C(=O)NCC(=O)O` [Darinaparsin] + O=C(O)C(=O)Nc1sc2c(c1C(=O)O)CCNC2 [TCS401] (first compound 0.4 µM, partner dose 1.66667 µM) was run?
**A.** 94.3%

**Q.** And the cell count (WM1716)?
**A.** 101%

**Q.** What about the cell count (WM1745) of the same molecule?
**A.** 94.4%

**Q.** And the cell count (WM3526)?
**A.** 99.3%

**Q.** And the cell count (WM3619)?
**A.** 84.2%

**Q.** What about the cell count (WM451Lu) of the same molecule?
**A.** 139%

**Q.** Which results are given for `N.N.[Cl][Pt][Cl]` [cisplatin] + N#Cc1c(O)c2c(-c3ccc(-c4ccccc4O)cc3)csc2[nH]c1=O [A769662] (first compound 1.6 µM, partner dose 2 µM)?
**A.** cell count (WM115): 99%; cell count (WM1716): 93.2%; cell count (WM1745): 96.9%; cell count (WM3526): 101%; cell count (WM3619): 109%; cell count (WM451Lu): 95.8%

**Q.** `Cn1cc(C2=C(c3cn(C4CCN(Cc5ccccn5)CC4)c4ccccc34)C(=O)NC2=O)c2ccccc21` [Enzastaurin] + Nc1cccc2c1CN(C1CCC(=O)NC1=O)C2=O [lenalidomide] (first compound 0.8 µM, partner dose 1 µM) was tested. Which cell count (WM115) did it give?
**A.** 87.5%

**Q.** What about the cell count (WM1716) of the same molecule?
**A.** 93.6%

**Q.** What about the cell count (WM1745) of the same molecule?
**A.** 75.9%

**Q.** And the cell count (WM3526)?
**A.** 102%

**Q.** What about the cell count (WM3619) of the same molecule?
**A.** 85.8%

**Q.** And the cell count (WM451Lu)?
**A.** 150%

**Q.** Which cell count (WM115) does the source give for `N.N.[Cl][Pt][Cl]` [cisplatin] + Nc1ncn([C@H]2C[C@H](O)[C@@H](CO)O2)c(=O)n1 [decitabine] (first compound 1.6 µM, partner dose 0.1 µM) here?
**A.** 86%

**Q.** What about the cell count (WM1716) of the same molecule?
**A.** 75.9%

**Q.** And the cell count (WM1745)?
**A.** 95.1%

**Q.** And the cell count (WM3526)?
**A.** 104%

**Q.** And the cell count (WM3619)?
**A.** 83.5%

**Q.** And the cell count (WM451Lu)?
**A.** 83.8%

**Q.** For `Cn1cc(C2=C(c3cn(C4CCN(Cc5ccccn5)CC4)c4ccccc34)C(=O)NC2=O)c2ccccc21` [Enzastaurin] + CCCCCCCCc1ccc(CCC(N)(CO)CO)cc1 [fingolimod] (first compound 0.8 µM, partner dose 2 µM), which cell count (WM115) is on record?
**A.** 106%

**Q.** And the cell count (WM1716)?
**A.** 91.7%

**Q.** What about the cell count (WM1745) of the same molecule?
**A.** 84.9%

**Q.** And the cell count (WM3526)?
**A.** 93%

**Q.** And the cell count (WM3619)?
**A.** 63.7%

**Q.** What about the cell count (WM451Lu) of the same molecule?
**A.** 119%

**Q.** For `C[As](C)SC[C@H](NC(=O)CC[C@H](N)C(=O)O)C(=O)NCC(=O)O` [Darinaparsin] + Cc1cc(N2CCOCC2)cc2[nH]c(-c3c(NC[C@@H](O)c4cccc(Cl)c4)cc[nH]c3=O)nc12 [BMS536924] (first compound 0.4 µM, partner dose 0.2 µM), which cell count (WM115) is on record?
**A.** 94.9%

**Q.** What about the cell count (WM1716) of the same molecule?
**A.** 99.7%

**Q.** And the cell count (WM1745)?
**A.** 83.2%

**Q.** What about the cell count (WM3526) of the same molecule?
**A.** 87.6%

**Q.** What about the cell count (WM3619) of the same molecule?
**A.** 93.7%

**Q.** What about the cell count (WM451Lu) of the same molecule?
**A.** 87.7%
